Laboratory results from ChEMBL document CHEMBL1201862, “PubChem BioAssay data set” (2004).

What follows are compounds tested on NCI-H322M (assay: NCI anticancer screen, dose series, 48 h).

SMILES	GI50
Clc1nc(-[n+]2ccc(-c3ccncc3)cc2)nc(Nc2ccccc2)c1Cl	inactive: > 100 µM
C1=Cc2nccc3cc4c(c(c23)N1)OCO4	inactive: 4.58 µM
Cc1ccc(C(=O)N/N=C(\N=N\c2ccc([N+](=O)[O-])cc2)c2ccc(N(CCC#N)CCC#N)cc2C)cc1	inactive: > 100 µM
CN(C)c1ccc(C2CC(=O)CC(c3ccc(N(C)C)cc3)C23C(=O)NC(=O)NC3=O)cc1 (configuration not stated)	inactive: > 25 µM
CCN1C(=O)C(=Cc2ccc(-c3ccccc3)cc2)C(=O)N(CC)C1=S	inactive: > 100 µM
O=[N+]([O-])c1ccc(Cc2nc3cc4ccccc4cc3[nH]2)cc1C(F)(F)F	inactive: 18.6 µM
CCc1cc2c(oc3cc4ccccc4cc32)c(=O)[nH]1	inactive: > 10 µM
c1ccc2c(c1)N=C(NC1CCCCC1)CCN2	inactive: > 100 µM
Cc1nc2ccc(NC3OCC(O)C(O)C3O)cc2c(=O)n1-c1ccccc1 (configuration not stated)	inactive: > 100 µM
CN(C)CCCCN1c2ccccc2Sc2ccc(C(=O)c3ccccc3)cc21	inactive: 2.33 µM
CC(=O)C(CN1CCCCC1)C(c1ccccc1)c1c(O)c2ccccc2oc1=O (configuration not stated)	inactive: > 100 µM
O=c1c2cccnc2ncn1CCCN1CCCCC1	inactive: > 100 µM
CN(C)CC(C)(C)/C(=N\Nc1ccccc1)c1ccccc1	inactive: > 100 µM
CSc1nc(NC2OC(COC(C)=O)C(OC(C)=O)C(OC(C)=O)C2OC(C)=O)c(/N=C(\C)C(C)=O)c(=O)[nH]1 (configuration not stated)	inactive: > 100 µM
COc1ccc(Br)c(CN2CCc3ccccc32)c1OS(=O)(=O)c1ccc(C)cc1	inactive: 56.8 µM
C/C(=C/C(=O)N(C)c1ccccc1Cl)O[Si](C(C)C)(C(C)C)C(C)C	inactive: 23.8 µM
COC(=O)C1(NC(=O)C(CC(=O)OCc2ccccc2)NC(=O)OCc2ccccc2)CCCCCCC1 (configuration not stated)	inactive: > 100 µM
CCOc1cc(C(=O)O)c2c(ccc3ccc(OC)c(OC)c32)c1OC	inactive: > 100 µM
O=S(=O)(O)c1ccc2c(/N=N/c3ccc(Sc4ccc(/N=N/c5c(O)ccc6cc(S(=O)(=O)O)ccc56)cc4)cc3)c(O)ccc2c1	inactive: > 100 µM
CCOC(=O)CN(Cn1cncn1)Cn1cncn1	inactive: 55.1 µM
O=C(NC/C=C/CO)c1ccccc1	inactive: > 100 µM
COc1ccc(Nc2nc3ccccc3nc2-c2cccs2)cc1	inactive: > 100 µM
CCO/C=N\C1=C(C#N)SC2=N/C(=C\c3ccc(OC)cc3)C(=O)N21	inactive: > 100 µM
O=c1[nH]cnc2sc(=S)c3c(c12)CCC3	inactive: 35.9 µM

SMILES	GI50
COc1cc2c(cc1OCCCC(=O)Nc1cc(C(=O)Nc3cc(C(=O)Nc4cc(C(=O)NCCCN(C)C)n(C)n4)n(C)c3)n(C)c1)N=CC1CCCN1C2=O (configuration not stated)	inactive: > 100 µM
CSc1nc(C)c2c(n1)SCC2	inactive: > 10 µM
COc1cc(CCN(C)C)cc(OC)c1OC	inactive: > 100 µM
CCC(C)C1NC(=O)C2CCCN2C(=O)C(CC2CO2)OC(=O)CCNC(=O)C(C)N(C)C(=O)C(C(C)C)N(C)C1=O (configuration not stated)	inactive: 5.33 µM
O=C(O)C(F)(F)C(F)(F)C(F)(F)C(F)(F)C(F)(F)C(F)(F)C(F)(F)C(F)(F)F	inactive: 53.5 µM
CCC12CCC(O)C1N(C)CCC2Sc1ccccc1 (configuration not stated)	inactive: > 100 µM
COc1ccc(NC(=O)CC(=O)N2N=C(N3c4ccccc4Sc4ccccc43)CC2c2ccccc2)cc1 (configuration not stated)	inactive: > 100 µM
CC1CC/C(=C\c2ccc(F)cc2)C(=O)/C1=C/c1ccc(F)cc1 (configuration not stated)	inactive: 7.38 µM
CC1=C(C#N)c2nc3ccccc3n2C(=O)C1(C)CCO (configuration not stated)	inactive: > 100 µM
CC1(C)CC[C@]2(C)CC[C@]3(C)C(=CC[C@@H]4[C@@]5(C)CCC(=O)C(C)(C)[C@@H]5[C@H](O)C[C@]43C)[C@@H]2C1	inactive: 16.8 µM
COC(=O)CNCC1OC2OC(C)(C)OC2C1N=[N+]=[N-] (configuration not stated)	inactive: > 100 µM
N#CC(=C1CCCCC1)c1nc2ccccc2o1	inactive: > 100 µM
C[C@@H]1O[C@]2(O)[C@@H]3CCCN3S(=O)(=O)CCN2C1=O	inactive: > 100 µM
CC(C)=CC1CC(=O)C1(C)Sc1ccccc1 (configuration not stated)	inactive: > 100 µM
CC(=O)OCC1OC(n2c3c(c(-c4ccco4)c(C#N)c2=S)CCC3)C(OC(C)=O)C(OC(C)=O)C1OC(C)=O (configuration not stated)	inactive: > 100 µM
Nc1ccn(CC(CO)CC(c2ccccc2)P(=O)(O)O)c(=O)n1 (configuration not stated)	inactive: > 100 µM
NCCCCN(CCCN)Cc1ccccc1	inactive: > 100 µM
COC1=C2CC(C)CC(OC)C(OC(=O)CN)[C@H](C)/C=C(\C)C(OC(N)=O)C(OC)/C=C\C=C(/C)C(=O)NC(=CC1=O)C2=O (some centres not stated)	inactive: 12.7 µM
OCC1C2C=CC(O2)[C@H]1CO (some centres not stated)	inactive: > 100 µM
COc1ccc([I+]c2ccc(OC)cc2)cc1	inactive: > 100 µM
CC(=O)OC(C)c1cc2c(s1)C(=O)c1ccsc1C2=O (configuration not stated)	inactive: 1.46 µM
CCCCCc1cccc(=O)o1	inactive: > 100 µM
COc1cc(CCc2ccc(OCCN(C)C)cc2)cc(OC)c1OC	inactive: > 100 µM

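Briefly, cells in 96-well plates were exposed to five compound concentrations for 48 h, and endpoints were estimated by linear interpolation. Abbreviation: GI50, concentration required for 50% inhibition of growth.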 Active and inactive are the calls of the source. Cut-off read from the data, not from the text of the source: active = GI50 up to about 1.1 µM and inactive = higher.
